Values joined by “and” are separate entries in the source; they are usually repeats but may differ in a detail not shown here. Equal values may be shown once. The whole screen tested about 400,000 compounds, of which about 2,200 (0.55%) were called active. Not shown: some 1% with an inconclusive outcome. The call rests on the fitted dose curve; in most records, active means well fitted inhibition curve with a large enough effect; inconclusive means small, poorly fitted or top-dose-only effect, or another doubt; inactive means no such curve, though single readings can be large or run the other way. The list shows a part of the results, in another mix than the full data. Some structures have more than one record in an assay (separate samples or runs), and their calls can disagree.
What follows are compounds tested against DNA polymerase kappa (Homo sapiens) (UniProt Q9UBT6) (assay: qHTS for Inhibitors of Polymerase Kappa). Details: purified Pol kappa, fluorescent DNA synthesis assay, 10 min; series mostly up to 60.1 µM; activity, negative = inhibition: at the top concentration.
Chain of UniProt Q9UBT6 (Q9UBT6 whole entry, looked up): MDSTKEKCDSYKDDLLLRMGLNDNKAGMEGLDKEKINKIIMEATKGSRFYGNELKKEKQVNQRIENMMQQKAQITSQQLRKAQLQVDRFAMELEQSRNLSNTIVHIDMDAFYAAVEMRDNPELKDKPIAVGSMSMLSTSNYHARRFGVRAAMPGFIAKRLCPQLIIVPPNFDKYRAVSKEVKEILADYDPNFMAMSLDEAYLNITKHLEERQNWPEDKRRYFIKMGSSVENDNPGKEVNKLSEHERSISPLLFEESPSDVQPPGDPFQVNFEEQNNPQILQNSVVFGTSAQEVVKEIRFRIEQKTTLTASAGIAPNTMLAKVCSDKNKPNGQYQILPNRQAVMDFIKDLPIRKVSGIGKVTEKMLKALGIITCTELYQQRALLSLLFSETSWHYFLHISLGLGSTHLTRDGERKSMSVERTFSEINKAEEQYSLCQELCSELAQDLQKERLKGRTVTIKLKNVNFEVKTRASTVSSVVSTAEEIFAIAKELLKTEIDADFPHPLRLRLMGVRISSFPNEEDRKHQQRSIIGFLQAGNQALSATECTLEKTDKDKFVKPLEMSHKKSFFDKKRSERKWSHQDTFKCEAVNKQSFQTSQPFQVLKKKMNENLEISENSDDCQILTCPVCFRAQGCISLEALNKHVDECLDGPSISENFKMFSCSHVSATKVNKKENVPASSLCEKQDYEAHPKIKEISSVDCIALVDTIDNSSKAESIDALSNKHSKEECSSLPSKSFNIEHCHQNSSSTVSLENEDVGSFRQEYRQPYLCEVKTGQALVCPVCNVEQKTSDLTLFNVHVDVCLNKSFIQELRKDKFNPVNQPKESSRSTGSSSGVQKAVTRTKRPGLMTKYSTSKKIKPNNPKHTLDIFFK
Protocol: The processing and repair of DNA interstrand crosslinks (ICL) in eukaryotic cells are extremely complex, potentially involving multiple DNA repair and damage tolerance pathways, including homologous recombination, nucleotide excision repair, translesion synthesis (TLS), and cell cycle checkpoints.
To that end, in a collaboration between the Oregon Health & Science University and the NIH Chemical Genomics Center a 1536-well high-throughput screen was developed. This fluorescent screen was assayed against the NIH Molecular Libraries Small Molecule Repository (MLSMR) to discover inhibitors of Pol Kappa.
NIH Chemical Genomics Center [NCGC]
NIH Molecular Libraries Probe Centers Network [MLPCN]
Assay Submitter (PI): Stephen Lloyd, Oregon Health & Science University
Three microliters of reagents (buffer in column 3 and 4 as negative control and 10 nM Pol kappa in columns 1, 2, and 5-48) were dispensed into a 1536-well black solid-bottom plate. Compounds (23 nL) were transferred via Kalypsys pin tool equipped with 1536-pin array. The plates were then incubated for 15 min at room temperature, and 1 uL substrate (50 nM final concentration) were then added to start the reaction and kinetically read twice at 0 min and 10 min on the Viewlux reader
On the % scale 0 is the no-effect control and ±100 the full control effect; potency means the concentration at half of the fitted maximal effect.

Compound	Potency	activity, negative = inhibition
NC1C=CC=C(C(=O)O)C1 (stereo not drawn)	inactive	
Clc1c(Cl)c(Cl)c(Cl)c(Cl)c1Cl		inactive: 17%
N#CC(C#N)=Cc1ccc([N+](=O)[O-])c(O)c1		inactive: 5.64% [at 19.4 µM]
C[C@H](N)C(=O)NCC(=O)N[C@H]1CSSC[C@@H](C(=O)O)NC(=O)[C@H](CO)NC(=O)[C@H]([C@@H](C)O)NC(=O)[C@H](Cc2ccccc2)NC(=O)[C@H]([C@@H](C)O)NC(=O)[C@H](CCCCN)NC(=O)[C@@H](Cc2c[nH]c3ccccc23)NC(=O)[C@H](Cc2ccccc2)NC(=O)[C@H](Cc2ccccc2)NC(=O)[C@H](CC(N)=O)NC(=O)[C@H](CCCCN)NC1=O		inactive: 14.5%
Cc1ccc(NC(=O)N(C)C)cc1Cl		inactive: 16.5%
C[C@@H](COc1ccccc1)N(CCCl)Cc1ccccc1		inactive: -5.98% [at 12 µM]
CCCCC/C=C\C/C=C\C/C=C\C/C=C\CCCC(=O)NCc1ccoc1	active: 7.94 µM	
O=C(O)CO.[NH2-].[NH2-].[Pt+2]		inactive: -0.736% [at 19.4 µM]
COc1ccc(CN2C(=O)NC(=O)/C(=C/c3ccoc3)C2=O)cc1	active: 20 µM	
Nc1ccc(CCN2CCN(c3cccc(C(F)(F)F)c3)CC2)cc1	inactive	
Cc1cccc(C2=NN(c3ccc(Br)cc3)[C@@H](C(=O)N3CCOC3=O)[C@@H]2c2ccc([N+](=O)[O-])cc2)c1		inactive: -5.8% [at 107 µM]
CC(C)C[C@H]1C(=O)N2CCC[C@H]2[C@]2(O)O[C@](NC(=O)[C@@H]3C=C4c5cccc6[nH]c(Br)c(c56)CC4N(C)C3)(C(C)C)C(=O)N12 (stereo partly drawn)		inactive: 1.53% [at 107 µM]
CCCCC/C=C\C/C=C\C/C=C\C/C=C\CCCC(=O)O		inactive: 4.56% [at 19.4 µM]
NCCCC[C@@H](N)C(=O)O	inactive	
Oc1ccc2c3c1O[C@H]1c4oc5ccccc5c4C[C@@]4(O)C(C2)N(CC2CC2)CCC314 (stereo partly drawn)		inactive: 2.33%
CC(=O)OCC[N+](C)(C)C	inactive	
Cc1cccc(OCCn2cccc2/C=C2/C(=O)NC(=O)N(Cc3ccco3)C2=O)c1	active: 28.2 µM	
C[C@H](CCC(=O)O)[C@H]1CC[C@H]2[C@@H]3CC[C@@H]4C[C@H](O)CC[C@]4(C)[C@H]3CC[C@]12C		inactive: -30.3% [at 107 µM]
Cc1cc(O)c2c(c1)C(=O)c1cc(O)cc(O)c1C2=O		inactive: -18.4% [at 19.4 µM]
C/C=C1/CN2CC[C@]34C(=C(C=O)[C@H]1C[C@@H]23)Nc1ccccc14		inactive: -9.93% [at 19.4 µM]
CC(C)[C@H](NC(=O)[C@H](CC(=O)O)NC(=O)[C@H](Cc1ccccc1)NC(=O)[C@@H](C)NC(=O)[C@@H](N)Cc1ccc(O)cc1)C(=O)N[C@H](C(=O)NCC(N)=O)C(C)C		inactive: 14.8%
CN1CCc2cc3c(c4c2C1Cc1ccccc1-4)OCO3 (stereo not drawn)		inactive: -1.94% [at 107 µM]
Cc1cccc2c3c(ccc12)C1=C(C(=O)C3=O)C(C)CO1 (stereo not drawn)	active: 20 µM	
CCCCC/C=C\C/C=C\C/C=C\C/C=C\CCCC(=O)OC(CO)CO		inactive: 3.28% [at 19.4 µM]
CCN(CC)C(=O)N[C@@H]1C[C@H]2c3cccc4[nH]cc(c34)C[C@@H]2N(C)C1		inactive: -3.23% [at 12 µM] and inactive: -4.16% [at 12 µM]
CC(N)C(O)c1ccc(O)c(O)c1 (stereo not drawn)	active: 3.16 µM	

Compound	Potency	activity, negative = inhibition
CC(=O)O[C@H]1C2[C@@H](OC(=O)Cc3ccccc3)[C@@H](C)C[C@]2(OC(C)=O)C(=O)/C(C)=C/[C@@H]2[C@H](CC[C@@]13CO3)C2(C)C (stereo partly drawn)		inactive: 0.788%
N=C(N)c1ccc(-c2ccc(-c3ccc(C(=N)N)cc3)o2)cc1	active: 12.6 µM	
CC(CO)NC(=O)C1C=C2c3cccc4[nH]cc(c34)CC2N(C)C1 (stereo not drawn)		inactive: -4.97%
COC[C@H]1OC(=O)c2coc3c2[C@@]1(C)C1=C(C3=O)[C@H]2CCC(=O)[C@@]2(C)C[C@H]1OC(C)=O		inactive: -13.6% [at 19.4 µM]
O=C1OC(=O)C2C1[C@@H]1CC[C@H]2O1 (stereo partly drawn)		inactive: 3.25% [at 107 µM]
N#C/C(=C\c1ccc(O)c(O)c1)C(=O)NCCCNC(=O)/C(C#N)=C/c1ccc(O)c(O)c1	active: 0.299 µM	
C[C@]12CC[C@@H]3c4ccc(O)cc4C[C@@H](CCCCCCCCCS(=O)CCCC(F)(F)C(F)(F)F)[C@H]3[C@@H]1CC[C@@H]2O (stereo partly drawn)		inactive: -7.65%
Cc1cc(/C=C2\C(=O)NC(=O)N(c3cccc(F)c3)C2=O)c(C)n1-c1cc(C(=O)O)cc(C(=O)O)c1	active: 50.1 µM	
CC(=O)c1c(O)c(C)c(O)c(Cc2c(O)c3c(c(C(=O)/C=C/c4ccccc4)c2O)OC(C)(C)C=C3)c1O	inactive	
COc1ccc(C(c2ccc(OC)cc2)C(Cl)(Cl)Cl)cc1		inactive: -10.6%
CCN1C[C@]2(OC(=O)c3ccccc3NC(C)=O)CCC(OC)C34C5C[C@H]6C(OC)[C@]5(O)[C@](O)(C[C@@H]6OC)C(C[C@@H]32)[C@H]14 (stereo partly drawn)		inactive: -4.54% [at 107 µM]
COc1ccc(N2C(=O)NC(=O)/C(=C\c3ccc([N+](=O)[O-])s3)C2=O)cc1	active: 50.1 µM	
Cc1ccc2c(C)c3ccc4ccccc4c3c[n+]2c1	active: 39.8 µM	
COc1cc2c(cc1O)CC1c3c(cc(O)c(OC)c3-2)CCN1C (stereo not drawn)	inactive	
CC(=O)OC1C2C(OC(=O)Cc3ccccc3)C(C)CC2(OC(C)=O)C(=O)/C(C)=C/C2C(CC[C@@]13CO3)C2(C)C (stereo partly drawn)		inactive: -15.6%
O=C(Nc1ccc(F)cc1F)c1cccnc1Oc1cccc(C(F)(F)F)c1	inactive	
Oc1ccc(Cl)cc1Cc1cc(Cl)ccc1O	inactive	
CCCC(C)(COC(N)=O)COC(=O)NC(C)C (stereo not drawn)	inactive	
NC(=O)[C@H](Cc1ccccc1)NC(=O)[C@H](Cc1c[nH]c2ccccc12)NC(=O)[C@@H]1CCCN1C(=O)[C@@H](N)Cc1ccc(O)cc1		inactive: 15.7%
Oc1ccc2c3c1O[C@H]1[C@@H](O)CC[C@@]4(O)C(C2)N(CC2CCC2)CCC314 (stereo partly drawn)	inactive	
COc1cccc([C@@]2(O)CCCC[C@@H]2CN(C)C)c1	inactive	
CCC(=O)O[C@H]1CC[C@H]2[C@@H]3CCC4=CC(=O)CC[C@]4(C)[C@H]3CC[C@]12C	inactive	
CCOc1cncc(/C=C/CCNC)c1		inactive: 17.2%
CN1CC(CNC(=O)OCc2ccccc2)CC2c3cccc4c3c(cn4C)CC21 (stereo not drawn)		inactive: -12.9%
COc1cc2c(cc1O)C[C@H]1c3c(cc(O)c(OC)c3-2)CCN1C	inactive	
COC(=O)[C@@H](Cc1ccccc1)N(Cc1ccccc1)S(=O)(=O)N(Cc1ccccc1)[C@H](Cc1ccccc1)C(=O)OC	inactive	

Compound	Potency	activity, negative = inhibition
CC(=O)O[C@H]1C(=O)[C@@]2(C)C([C@H](OC(=O)c3ccccc3)[C@]3(O)C[C@H](OC(=O)[C@H](O)[C@@H](NC(=O)c4ccccc4)c4ccccc4)C(C)=C1C3(C)C)[C@]1(OC(C)=O)CO[C@@H]1C[C@@H]2OC(=O)[C@H](C)NC(=O)c1ccc(-c2c3ccc(=O)cc-3oc3cc(O)ccc23)c(C(=O)O)c1 (stereo partly drawn)	active: 4.74 µM	
C/C=C1/C[C@@H](C)[C@](O)(CO)C(=O)OCC2=CCN3CC[C@@H](OC1=O)[C@@H]23		inactive: -8.67% [at 107 µM]
CCCCC/C=C\C/C=C\C/C=C\C/C=C\CCCC(=O)OCCN		inactive: -11.5% [at 12 µM]
COC1C(C)OC(OC2CC(C)(O)Cc3cc4c(c(O)c32)C(=O)c2c(O)cc3c(c2C4=O)OC2OC3(C)C(O)C(N(C)C)C2O)C(OC)C1(C)OC (stereo not drawn)	active: 25.1 µM	
C=C(C)[C@@H]1CC[C@]2(C(=O)O)CC[C@]3(C)C(CCC4[C@@]5(C)CC[C@H](O)C(C)(C)C5CC[C@]43C)C12 (stereo partly drawn)		inactive: 13.1% [at 107 µM]
C[C@]12CC[C@@H]3c4ccc(O)cc4C[C@@H](CCCCCCCCCS(=O)CCCC(F)(F)C(F)(F)F)C3[C@@H]1CC[C@@H]2O (stereo partly drawn)		inactive: -16.9%
CCCCCCC(C)(C)c1ccc([C@@H]2C[C@H](O)CC[C@H]2CCCO)c(O)c1	inactive	
CN(C)C1CSSSC1		inactive: 18.2%
CO/C1=C\C(C)=C\[C@@H](C)[C@@H](O)[C@@H](C)C/C(C)=C/C=C\[C@H](OC)C([C@@H](C)[C@@H](O)[C@H](C)[C@@]2(O)C[C@@H](O)[C@H](C)C(C(C)C)O2)OC1=O (stereo partly drawn)		inactive: -14.5% [at 2.39 µM]
CCN(CC)C(=O)C(C)Oc1cccc2ccccc12 (stereo not drawn)		inactive: 14.6%
CCC[C@@](C)(COC(N)=O)COC(=O)NC(C)C		inactive: -6.93% [at 12 µM]
CC[C@@]1(O)CC(O)c2c(cc3c(c2O)C(=O)c2c(O)ccc(O)c2C3=O)C1C(=O)OC (stereo partly drawn)	active: 25.1 µM	
Oc1ccc2c3c1O[C@H]1[C@@H](O)CC[C@@]4(O)[C@@H](C2)N(CC2CCC2)CC[C@]314	inactive	
CS(=O)c1ccc(-c2nc(-c3ccc(F)cc3)c(-c3ccncc3)[nH]2)cc1 (stereo not drawn)	inactive	
CN1C[C@H](CNC(=O)OCc2ccccc2)C[C@@H]2c3cccc4c3c(cn4C)C[C@H]21	inactive	
CC(CCC(=O)O)C1CCC2C3C(O)C[C@@H]4CC(O)CC[C@@]4(C)C3CC[C@@]12C (stereo partly drawn)		inactive: -1.37%
O=C(O)c1cc(O)c(O)c(O)c1		inactive: -22.4%
CCCCCCCCCOc1ccc2[nH]cc(CCN)c2c1		inactive: -0.848% [at 19.4 µM]
Clc1ccc(COC(Cn2ccnc2)c2ccc(Cl)cc2Cl)cc1 (stereo not drawn)	inactive	
Cc1cccc(N2C(=O)NC(=O)/C(=C/c3cc4c(cc3[N+](=O)[O-])OCO4)C2=O)c1	active: 89.1 µM	
CC(C)C[C@H]1C(=O)N2CCC[C@H]2[C@]2(O)O[C@](NC(=O)C3C=C4c5cccc6[nH]c(Br)c(c56)C[C@H]4N(C)C3)(C(C)C)C(=O)N12 (stereo partly drawn)		inactive: -3.87% [at 107 µM]
COc1cccc([C@@]2(O)CCCCC2CN(C)C)c1 (stereo partly drawn)	inactive	
CO[C@H]1C=C2CCN(C)[C@@H]2[C@@H]2c3cc4c(cc3C(=O)O[C@H]21)OCO4		inactive: -12.6% [at 12 µM]
CC(C)Nc1nc(Cl)nc(NC(C)C)n1		inactive: -7.31% [at 107 µM]
CCOc1cccc(OCC)c2c(C)[n+](CC3CCCO3)c(C)c1-2 (stereo not drawn)	active: 25.1 µM	
O=c1cc(-c2ccc(O)cc2)oc2c([C@H]3O[C@@H](CO)[C@@H](O)[C@@H](O)[C@@H]3O)c(O)cc(O)c12		inactive: -9.38% [at 12 µM]
